{
  "source": "paper PMC7904744",
  "about": "“Poly(ADP-ribosyl)ation enhances HuR oligomerization and contributes to pro-inflammatory gene mRNA stabilization” (Cellular and Molecular Life Sciences: CMLS, 2020)",
  "target": "the molecule itself",
  "assay": "native gel or EMSA; RNA-EMSA: purified and eluted GST proteins (PARylated or not) with 5 nM 5' biotin-labelled ARE repeat or Cxcl2-ARE RNA oligo, 40 min, room temperature, 3 mM MgCl2, 40 mM KCl, 5% glycerol, 2 mM DTT, tRNA; 6% native gel; multiple shifted bands read as oligomeric HuR on the RNA",
  "data": [
    {"protein": "GST-HuR D226A (natural protein, HuR (ELAVL1), human, with D226A made in the background of GST-HuR; The samples with and without PARP1 incubation are kept as one molecule; also called D226A mutant of GST-HuR; D226 mutant; source: E. coli BL21, purified (glutathione Sepharose 4B); used with or without incubation with recombinant PARP1 enzyme) not shown", "values": [
      {"measurement": "binding result", "value": "binds"}
    ]}
  ]
}
